Out of some 310,000 compounds screened, about 2,200 (0.71%) showed an effect of 50% or more. Effects have a minus sign here. This is one part of the list.
The compounds below were run against human ether-à-go-go-related gene (hERG) potassium channel (human, UniProt Q12809) (assay: primary screen, population patch clamp on CHO cells stably expressing hERG).
human ether-à-go-go-related gene (hERG) potassium channel, sequence (Q12809 whole entry, looked up): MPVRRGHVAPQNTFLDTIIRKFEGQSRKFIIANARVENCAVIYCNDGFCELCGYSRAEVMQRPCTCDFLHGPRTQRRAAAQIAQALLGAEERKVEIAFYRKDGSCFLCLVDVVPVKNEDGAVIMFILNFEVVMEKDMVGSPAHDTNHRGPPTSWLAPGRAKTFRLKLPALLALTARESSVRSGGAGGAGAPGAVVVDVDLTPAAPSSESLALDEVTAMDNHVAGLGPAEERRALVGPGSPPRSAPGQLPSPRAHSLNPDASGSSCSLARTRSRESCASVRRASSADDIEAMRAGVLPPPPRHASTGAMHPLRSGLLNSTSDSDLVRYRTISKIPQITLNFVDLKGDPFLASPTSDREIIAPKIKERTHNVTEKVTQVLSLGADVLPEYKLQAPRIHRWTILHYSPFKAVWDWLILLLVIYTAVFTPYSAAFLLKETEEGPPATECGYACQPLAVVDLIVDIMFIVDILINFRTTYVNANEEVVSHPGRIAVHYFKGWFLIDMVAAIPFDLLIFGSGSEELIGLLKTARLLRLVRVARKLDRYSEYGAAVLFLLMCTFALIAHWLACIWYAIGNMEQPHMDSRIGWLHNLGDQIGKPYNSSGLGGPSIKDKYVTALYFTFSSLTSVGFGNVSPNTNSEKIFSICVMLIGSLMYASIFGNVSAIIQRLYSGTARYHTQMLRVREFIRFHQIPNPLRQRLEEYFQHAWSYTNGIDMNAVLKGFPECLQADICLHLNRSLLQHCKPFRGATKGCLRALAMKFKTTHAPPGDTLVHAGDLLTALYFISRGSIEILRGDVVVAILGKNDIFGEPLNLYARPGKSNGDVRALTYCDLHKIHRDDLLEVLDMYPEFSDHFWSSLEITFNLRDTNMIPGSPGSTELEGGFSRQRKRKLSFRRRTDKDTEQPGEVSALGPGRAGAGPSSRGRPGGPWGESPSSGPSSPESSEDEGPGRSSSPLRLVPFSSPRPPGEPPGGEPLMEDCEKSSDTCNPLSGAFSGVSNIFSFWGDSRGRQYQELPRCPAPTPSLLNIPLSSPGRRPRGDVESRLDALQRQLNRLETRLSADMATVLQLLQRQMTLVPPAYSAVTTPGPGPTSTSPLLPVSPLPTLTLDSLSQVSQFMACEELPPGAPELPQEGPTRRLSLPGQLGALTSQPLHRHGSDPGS

| Structure (SMILES) | hERG current change (%, negative = inhibition) at 1uM |
| --- | --- |
| Cc1ccc(-c2nnc(SCC(=O)N(CC(C)C)c3c(N)n(Cc4ccccc4)c(=O)[nH]c3=O)n2N)cc1 | 12.1% |
| O=C(CN1CCN(c2ccc(F)cc2)CC1)NCC1CCCO1 (centres unmarked) | 1.66% |
| O=C(Nc1ccccc1C(=O)NCC1CCCO1)c1ccccc1F (centres unmarked) | 11.5% |
| COc1ccc(-c2nc(CN3CCC(c4ccccc4)CC3)c(C)o2)cc1OC | -13.5% |
| CCOC(=O)Cc1csc(NC(=O)CC)n1 | 5.73% |
| COc1ccc(/C=N\NC(=O)c2ccccc2OC)cc1COc1c(F)c(F)c(F)c(F)c1F | 18.9% |
| COc1ccc(OC)c(NC(=O)C2CCN(C(=O)c3cccs3)CC2)c1 | 18.9% |
| CCCN1CCN(CCCNC(=O)C(CC)n2nc(C)c3sc4ccccc4c3c2=O)CC1 (centres unmarked) | -19.9% |
| CS(=O)(=O)N1CCc2ccc(NC(=O)C3CCCO3)cc2C1 (centres unmarked) | 14.2% |
| COc1ccc(CN2C(=O)CN(C3CCCCCC3)C(=O)C2c2ccc(F)cc2)cc1 (centres unmarked) | 3.48% |
| Cc1ccc(S(=O)(=O)NCc2ccc(N3CCN(C(=O)OC(C)(C)C)CC3)cc2)cc1 | -4.99% |
| O=C(O)c1cc(-c2cccc3ccccc23)nc2ccccc12 | 13.7% |
| Cc1nnc2ccc(-c3ccc(NS(=O)(=O)c4ccccc4F)cc3)nn12 | 14.2% |
| Cc1ccccc1SCC(=O)Nc1cc(S(=O)(=O)N2CCOCC2)ccc1N1CCOCC1 | 6.92% |
| Clc1ccc(OCCSc2nnnn2C2CCCCC2)cc1 | 6.37% |
| O=C1CCOc2cc(OCc3ccccc3)ccc21 | 5.04% |
| CCN(CC)c1nc2c(s1)C(=O)CC(C)(C)C2 | 2.14% |
| CN1c2ccccc2C(C)(C)C12C=Cc1cc(O)ccc1O2 (centres unmarked) | -0.271% |
| OC1(c2ccc(F)cc2)CSC(=Nc2cccnc2)N1Cc1ccco1 (centres unmarked) | 4.87% |
| O=C(COC(=O)Cc1c(Cl)cccc1Cl)Nc1ccc2[nH]c(=O)[nH]c2c1 | 13.4% |
| Cc1cc(=O)oc2cc(OCC(=O)N3CC(=O)Nc4ccccc43)c(Cl)cc12 | 9.4% |
| CN(c1ccccc1)S(=O)(=O)c1ccc(C(=O)NNC(=O)c2ccccc2F)cc1 | 8.11% |

| Structure (SMILES) | hERG current change (%, negative = inhibition) at 1uM |
| --- | --- |
| Cc1c(-c2ccccc2)nc2ccccc2c1C(=O)Nc1ccncc1 | 2.08% |
| O=C(/C=N/O)Nc1ccc2sc3ccccc3c2c1 | 15.7% |
| Cc1ccc(NC2=NCC(=O)N2Cc2cccs2)cc1C.Cl | 5.28% |
| Cc1ccc(CSCC(=O)N/N=C/c2cccc(OC3CSC3)c2)cc1 | 12.4% |
| O=C(O)c1ccc(-c2ccc(/C=c3/sc4nc5ccccc5n4c3=O)o2)cc1Cl | 13.1% |
| COc1ccc(NC(=O)CCCn2nc(C)c3c(C)n(-c4ccccc4)nc3c2=O)cc1 | 13.1% |
| O=C(CCCOc1ccc(Cl)cc1Cl)NCCCn1ccnc1 | -22.8% |
| COc1cc(CNc2ccccc2Oc2cc(=O)n(C)c(=O)n2C)cc(OC)c1OC | 12.8% |
| O=C(Nc1nc2c(cc3c4c(cccc42)CC3)s1)c1ccccc1Cl | 16.1% |
| O=C(Nc1ccc(N2CCCCC2)cc1)c1ccc2ccccc2n1 | 10.4% |
| COc1cccc(-c2cc(C(=O)NC3CC3)c3ccccc3n2)c1 | -20.1% |
| Cc1cc(=O)oc2cc(Oc3ccc(C(N)=O)cc3[N+](=O)[O-])ccc12 | -5.23% |
| O=C(CCS(=O)(=O)c1ccc(Br)cc1)Nc1ccc(Br)cc1F | 7.33% |
| CCOC(=O)C1=C(C)N(C)C(=O)NC1c1ccc2c(c1)OCO2 (centres unmarked) | 6.95% |
| COc1ccc(C(=O)COC(=O)c2sc(C)nc2C)cc1Cl | 11.7% |
| O=C(NCc1ccccc1)C1=C[C@@H](C2CC2)C[C@@H](OCCCCO)O1 | 16.1% |
| O=C(CN1CCN(c2ccc(O)cc2)CC1)NC1CCCc2ccccc21 (centres unmarked) | 11.9% |
| O=C1C2C3CC(C(Br)C3Br)C2C(=O)N1CC1CCCO1 (centres unmarked) | 13% |
| O=C(COc1ccc(Br)cc1)Nc1ccc2c(c1)C(=O)NC2=O | 16.5% |
| CCc1ccc(-c2nn(-c3ccccc3C)cc2C(=O)N2CCN(C3CCS(=O)(=O)C3)CC2)cc1 (centres unmarked) | 7.43% |
| CCCCOC(=O)c1ccc(NC(=O)COC(=O)c2ccc3ncsc3c2)cc1 | -2.3% |
| Cc1cccc(CCNC(=O)C2CCCN(S(=O)(=O)c3cccc4nsnc34)C2)c1 (centres unmarked) | 1.58% |

— PMC4336329 (PLoS ONE, 2015)
